Legend:
[1] = system: HCMV late antigen pp28; assay: expression of viral late antigen pp28 in infected LU cells (immunofluorescence); type: cell-based, Human cytomegalovirus; conditions: in the presence of PAA; between 24 and 96 hr after infection of LU cells
Experimental: Cells were cultured on sterile glass coverslips. The cells were washed three times in PBS and fixed in acetone:methanol (1:1) at −20° C. for 10 min. The permeabilized cells were incubated with primary antibody diluted in PBS for 1 hr at 37° C. in a humidified chamber. […] The excess conjugate was removed by washing the cells in PBS for 30 min. After drying, the cells were mounted in PBS/glycerol (1:1) and examined with the aid of a Zeiss Photomicroscope III using a 40/1.0 Neofluar lens. Images were photographed on Kodak Ektachrome Elite 400 color slide film.

[2] = system: human lung fibroblasts; conditions: 100 μg/ml (0.75 mM); cited from earlier work

Q: With `O=C(O)CP(=O)(O)O` [PAA, phosphonoacetic acid] as the molecule, how does the pp28 expression [1] read?
A: The pp28 expression was “could not be detected”.

Q: What about the “effect on cellular DNA synthesis or population doubling times of uninfected cultures” value [2] of the same molecule?
A: Its value is “little or no effect”.

— patent publication US6486166B1, “Suppression of cyclin kinase 2 activity for prevention and treatment of DNA viral infections” (Board of Regents, The University of Texas, priority 1997, dated 2002)
